Data reported in PMC4336329 (PLoS ONE, 2015).
The whole screen tested about 310,000 compounds, of which about 2,200 (0.71%) showed an effect of 50% or more. Effects have a minus sign here. This is one part of the list.

target: human ether-à-go-go-related gene (hERG) potassium channel (human, UniProt Q12809); test: primary screen, population patch clamp on CHO cells stably expressing hERG
Sequence (Q12809 whole entry, looked up): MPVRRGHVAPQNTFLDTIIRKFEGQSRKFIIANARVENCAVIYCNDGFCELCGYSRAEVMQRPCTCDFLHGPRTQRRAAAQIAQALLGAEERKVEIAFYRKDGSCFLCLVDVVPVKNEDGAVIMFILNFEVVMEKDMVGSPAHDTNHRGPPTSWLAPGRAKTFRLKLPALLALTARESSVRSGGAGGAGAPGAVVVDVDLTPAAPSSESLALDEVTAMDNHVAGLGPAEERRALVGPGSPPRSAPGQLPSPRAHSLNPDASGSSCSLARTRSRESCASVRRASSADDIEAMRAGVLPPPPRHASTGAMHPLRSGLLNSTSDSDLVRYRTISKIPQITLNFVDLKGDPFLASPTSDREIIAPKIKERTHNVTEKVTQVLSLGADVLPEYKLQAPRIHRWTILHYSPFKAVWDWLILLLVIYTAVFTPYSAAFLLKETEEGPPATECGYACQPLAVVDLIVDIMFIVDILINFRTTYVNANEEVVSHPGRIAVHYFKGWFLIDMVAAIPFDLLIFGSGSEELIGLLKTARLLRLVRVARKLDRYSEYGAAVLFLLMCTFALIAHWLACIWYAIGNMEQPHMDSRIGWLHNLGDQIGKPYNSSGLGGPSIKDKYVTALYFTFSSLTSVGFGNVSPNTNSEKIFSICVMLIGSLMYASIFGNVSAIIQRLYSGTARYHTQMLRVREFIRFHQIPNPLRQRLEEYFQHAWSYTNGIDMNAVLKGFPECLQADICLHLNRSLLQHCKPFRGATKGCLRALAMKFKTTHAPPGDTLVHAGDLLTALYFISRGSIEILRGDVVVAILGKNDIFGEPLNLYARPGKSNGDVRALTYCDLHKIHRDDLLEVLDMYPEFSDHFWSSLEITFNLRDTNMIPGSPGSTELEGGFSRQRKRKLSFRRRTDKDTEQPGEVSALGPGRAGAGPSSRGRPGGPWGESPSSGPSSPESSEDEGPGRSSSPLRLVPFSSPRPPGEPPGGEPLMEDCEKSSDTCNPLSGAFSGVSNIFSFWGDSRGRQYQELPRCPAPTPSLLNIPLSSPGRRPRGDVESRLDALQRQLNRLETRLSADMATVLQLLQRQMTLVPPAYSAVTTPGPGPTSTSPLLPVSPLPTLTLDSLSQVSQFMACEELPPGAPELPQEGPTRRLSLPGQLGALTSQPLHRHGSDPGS

SMILES | hERG current change (%, negative = inhibition) at 1uM [%]
Cc1ccc(NC(=S)NCc2ccccc2Cl)c(C)c1 | 5.27
COc1ccc(C(=O)Nc2cccc(-c3nc4ncccc4o3)c2C)cc1OC | 8.23
Cc1ccc(NC(=S)NCC23C=CC(O2)C2C(=O)N(c4ccc(C)cc4)C(=O)C23)cc1 (stereo not shown) | -2.13
O=C(c1cn(-c2ccccc2)nc1-c1cc2ccccc2oc1=O)N1CCOCC1 | 0.492
COc1cc(OC)cc(C(=O)NCCc2ccc(OC)c(OC)c2)c1 | 6.86
CC(=O)NS(=O)(=O)c1ccc(NC(=O)c2ccccn2)cc1 | 10.4
CCOc1ccccc1-n1nnnc1SCC(=O)Nc1cc2oc3ccccc3c2cc1OC | 9.01
O=C1c2ccccc2C(Nc2ccc3c(c2)OCCO3)N1Cc1ccco1 (stereo not shown) | 2.68
COc1ccc(N(C)C(=O)C2CCCN2S(=O)(=O)c2cccc3nsnc23)cc1 (stereo not shown) | 10.7
N#C/C(=C\c1ccccn1)c1ccccn1 | 12
O=C(Cn1cnc2c(cnn2-c2ccc(Cl)cc2)c1=O)NC1CCCCC1 | 21.3
O=C(COC(=O)Cn1cnc2ccccc2c1=O)Nc1cc(Cl)ccc1[N+](=O)[O-] | 12.9
CC1CCCCC1NC(=O)CN1CCC(NC(=O)c2ccc([N+](=O)[O-])cc2)CC1 (stereo not shown) | 12.1
CCC12CN(C(=O)c3ccco3)CC(CC)(CN(C(=O)c3ccco3)C1)C2=O | 16.7
COc1ccc(Cl)cc1S(=O)(=O)N1CCN(Cc2ccc3c(c2)OCO3)CC1 | 1.84
CC(C)c1ccc(OCC(=O)NC2=NCCS2)cc1 | 6.99
O=C(COc1ccccc1[N+](=O)[O-])Nc1cc(Cl)ccc1C(=O)O | 7.98
N#Cc1ccccc1OCC(=O)OCC(=O)NC1CC1 | 8.31
CCCCNC(=O)Nc1ccc2c(c1)N(C)C(=O)c1ccccc1S2 | 17.1
COc1ccc(S(=O)(=O)c2cnc3ccccc3n2)cc1 | 2.73
O=C(COC(=O)c1cccnc1Cl)Nc1ccc2c(c1)OCO2 | 11.8
CCOc1ccccc1NC(=O)C(Sc1ccccc1)c1ccccc1 (stereo not shown) | 14.2

SMILES | hERG current change (%, negative = inhibition) at 1uM [%]
CCCN(CC1CC1)C(=O)COC(=O)c1ccc2c(c1)C(=O)N(c1ccc(OCC)cc1)C2=O | -42.4
CCOCCCNC(=O)c1ccc(-n2c(=S)[nH]c3ccccc3c2=O)cc1 | 4.47
Cc1cc(=O)[nH]c(SCC(=O)N2CCN(S(=O)(=O)c3ccccc3)C2)n1 | 10.6
O=C(/C=C/c1ccc(F)cc1)Nc1nc2ccccc2[nH]1 | 2.62
COCCC(=O)N1CCC(Oc2ccc(C(=O)N3CCCCC3COC)cc2)CC1 (stereo not shown) | 8.65
CCc1ccccc1NC(=S)NN | 16.6
O=C(CC1SC(=O)N(Cc2ccc(Cl)cc2)C1=O)Nc1nccs1 (stereo not shown) | 3.52
O=C(Cc1ccccc1)NCCCN1CCN(CCCNC(=O)Cc2ccccc2)CC1 | 11.8
CCOC(=O)C1(Cc2cccc(Cl)c2)CCCN(C(=O)c2ccnn2C)C1 (stereo not shown) | 11.1
O=C1N=c2ccccc2=C/C1=C\c1c(O)[nH]c(=S)[nH]c1=O | 12.3
CN(C)/C=C1\C(=O)Oc2ccccc2C1=O | 14.5
O=C(N=C1SC2CS(=O)(=O)CC2N1c1ccc(F)cc1)C1CC1 (stereo not shown) | 15.2
CN(C)CCP(=O)(c1ccccc1)c1ccccc1 | 4.25
Cc1ccc2c(c1)c1c(n2CC(O)Cn2nc(C)c(Br)c2C)CCCC1 (stereo not shown) | 13.9
CCCCN(CCCC)S(=O)(=O)c1ccc(NC(=O)CN2CCOCC2)cc1 | -11.1
O=C(COc1ccc(Br)cc1CO)N1CCCc2ccccc21 | 12.1
CN(CC(=O)OCC(=O)NCC(F)(F)F)S(=O)(=O)c1ccc(Cl)cc1 | 9.2
N#CCSc1nnc(-c2sc3ccccc3c2Cl)o1 | -1.64
COc1ccccc1CNC(=O)c1ccc(OCc2c(C)noc2C)c(OC)c1 | 11.5
CC1=CCC2C(=O)N(c3nc4ccccc4n3C)C(=O)C2C1 (stereo not shown) | 2.22
CC1(c2cccc(Br)c2)NC(=O)N(CC(=O)Nc2ccc3c(c2)OCO3)C1=O (stereo not shown) | 8.29
COc1ccc(OC)c(NC(=O)CCc2nnc3ccc(NCc4ccco4)nn23)c1 | 6.34

SMILES | hERG current change (%, negative = inhibition) at 1uM [%]
O=C(CSc1nnc(NC(=O)C2CC(=O)N(c3ccccc3)C2)s1)NCC1CCCO1 (stereo not shown) | 11.1
NS(=O)(=O)c1cc(Cl)c(NC(=O)COC(=O)c2ccccn2)c(Cl)c1 | 12.3
CN(C)CCOc1ccc2ccccc2c1.O=C(O)C(=O)O | 10.4
CC(=O)N(c1ccccc1)c1nc(/C=C/C(=O)Nc2c(C)cc(C)cc2C)cs1 | 11.1
COc1ccccc1NC(=O)N1CCCC1C(=O)NCc1ccccc1Cl (stereo not shown) | 12
Cc1cc(C)c2c(n1)nn1c(N3CCN(c4ccccc4)CC3)cc(C)nc21 | 18.2
O=C(NCCO)Nc1ccc(Cl)cc1 | 20.1
Cc1onc(-c2ccccc2Cl)c1C(=O)Nc1cc(=O)n(C)c(=O)n1C | 15.3
Cc1cccc2cc(COC(=O)c3cccc([N+](=O)[O-])c3)c(=O)[nH]c12 | 17.4
COc1ccc(C(=O)Nc2ccnn2C2CCN(Cc3cn(C)nc3C)CC2)cc1 | 16.3
CC(C)(C)c1cccc(Cn2nnc3ccccc32)c1O | 17.6
CC(/C=N/Nc1nnc(C)c(=O)[nH]1)=C\c1ccccc1 | 1.28
COc1ccc(NC(=O)c2cc3c(=O)n4ccccc4nc3n2C)c(OC)c1 | 4.51
Cc1cc2nc(-c3cccnc3SCC(=O)NCc3ccco3)[nH]c2cc1C | 3.82
Cc1cc(Cl)c(S(=O)(=O)NC2CCCC2)cc1OCC(=O)NC1CCCCC1 | -1.3
CCCOc1ccc(N2C(=O)CC(N3CCN(S(=O)(=O)c4ccccc4)CC3)C2=O)cc1 (stereo not shown) | 9.59
O=C(NCC1CC1)Nc1ccccc1 | 14.6
COC(=O)c1ccccc1NC(NC(=O)c1ccco1)C(=O)c1ccc(C)cc1 (stereo not shown) | 4.56
NC(=O)c1ccccc1NC(=O)CCc1ccccc1 | -1.09
CCN1CCN(c2nc(-c3ccc(F)cc3)cc(=O)[nH]2)CC1 | 6.95
Cc1ccc(S(=O)(=O)c2c(COC(=O)c3ccc(Cl)cc3)c(-c3ccccc3)nn2C)cc1 | 2.77
C=CCOc1ccc(CNn2nnnc2N)cc1 | 17.8

SMILES | hERG current change (%, negative = inhibition) at 1uM [%]
Cc1ccccc1C(=O)Nc1cc(-c2cc(C(C)(C)C)oc2C)nn1C | 10.3
[O-]/C(=C(\C(=S)Nc1ccc(SC(F)F)cc1)[n+]1ccccc1)c1ccc(Cl)cc1Cl | 6.05
CCc1ccccc1NC(=O)c1ccc(CN2CCC(Cc3ccccc3)CC2)cc1 | 5.13
CCc1ccc(O)c(N=Cc2cccc(C)c2O)c1 | 13
COc1ccc(N2CC(C(=O)Nc3ccccc3C(=O)NC3CC3)CC2=O)cc1 (stereo not shown) | 10.7
N#Cc1ncc(-c2ccc3c(c2)OCCOCCOCCOCCOCCO3)nc1C#N | -84.8
Cc1cc(C)c(OCC(=O)NCC(c2ccco2)N2CCCCC2)c(C)c1 (stereo not shown) | 1.04
Cl.Clc1ccccc1/C=N/N1CCN(Cc2ccccc2)CC1 | 8.02
CC(CCc1ccccc1)NC(=O)C(Cc1ccccc1)NC(N)=O (stereo not shown) | 16.3
CCc1ccc(OCC(O)CNC(C)(C)C)cc1.Cl (stereo not shown) | 4.94
COc1ccc(OC)c(-c2csc(NC(=O)Cc3cccs3)n2)c1 | 8.97
Cc1ccc(S(=O)(=O)N2CCN(C(=O)c3n[nH]c(=O)c4ccccc34)CC2)c(C)c1 | -6.11
Cc1ccc(S(=O)(=O)/N=C(/c2ccccc2)N2CCOCC2)cc1 | 11.9
CCCC(NC(=O)COc1cc2c(c3oc(=O)cc(C)c13)CCC(C)(C)O2)C(=O)O (stereo not shown) | 12.8
COc1cc(/C=N\NC(=O)c2ccc(-c3ccccc3)cc2)cc(OC)c1OC(C)=O | 8.53
Cn1c(NC(=O)c2ccc(F)cc2)c(-c2ccccn2)c(=O)c2ccccc21 | 17
Cc1ccc(C)n1NC(=O)c1ccc([N+](=O)[O-])cc1 | 9.54
O=C1CC(NC(=O)C(F)(F)F)=NN1c1ccccc1 | 9.44
CC(=O)Nc1ccc(Oc2cc(C#N)c(C#N)cc2N2CCCCCC2)cc1 | 15.9
COc1ccccc1N1CCN(S(=O)(=O)/C=C/c2ccccc2)CC1 | 1.66
COc1cc(C)c(CN2CCN(CC(=O)Nc3ccccc3C(=O)NC3CC3)CC2)cc1OC | -87.6
Cc1ccc(S(=O)(=O)N(CC(=O)N/N=C/c2cccc(C)c2)c2cccc3cccnc23)cc1 | 8.65
